Measurements published in PubChem BioAssay AID1963576 (National Center for Advancing Translational Sciences (NCATS), 2024).
Hit rate of the full screen: of about 46,000 compounds, about 60 (0.1%) were called active. Another 3% or so got no clear call; they are omitted. Calls follow the shape of the dose curve; as a rule, active = well fitted inhibition curve with a large enough effect; inconclusive = small, poorly fitted or top-dose-only effect; inactive = no such curve, though single readings can be large or run the other way. The list shows a part of the results.

assay: Primary qHTS assay for Inhibitors of ovarian cancer metastasis using an organotypic tumor microenvironment (TME) model.; also: nearly all actives have a fitted effect of over 65% in size;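 as to activity change, negative = inhibition: plate controls were DMSO wells for no effect and tomatine positive control wells for full effect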; settings: SKOV3ip1-GFP adhesion/invasion on 3D omental model, fluorescence; series mostly up to 45.8 µM; activity change, negative = inhibition: at the top concentration
Summary of the method: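 A 3D layer of primary human omental fibroblasts, mesothelial cells, fibronectin and collagen I, grown 48 hr, received SKOV3ip1-GFP cells in serum-free medium plus compounds at 0.36-46 umol/L. After 2 hr RT and 16 hr 37 C, fixed adherent GFP cells were counted; normalized to DMSO and tomatine.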

Compound	activity change, negative = inhibition	outcome
COc1cc(OC)cc(N2C(=O)N(CC(=O)c3ccc(F)cc3)c3ccccc3S2(=O)=O)c1	inactive: -32.8%	
COc1ccc(-c2noc(Cn3c(=O)c4ccccc4n(CC(=O)Nc4cccc(OC)c4)c3=O)n2)cc1	inactive: -4.59%	
COc1ccc(CN2CCc3nc(SCC(=O)Nc4cc(C)cc(C)c4)[nH]c(=O)c3C2)cc1	inactive: 3.03%	
CCCOC(=O)CSc1ncnc2sc3c(c12)CCC(C)C3 (configuration not stated)	inactive: -2.39%	
COc1cccc(NC(=O)N2CCN3CCCCC3C2)c1 (configuration not stated)	inactive: -24.3%	
Cc1cccc(Cn2c(=O)n(CC3CCC(C(=O)N4CCOCC4)CC3)c(=O)c3sccc32)c1 (configuration not stated)	inactive: -1.46%	
CCOC(=O)c1ccc(NC(=O)c2oc(=O)c3ccccc3c2-c2ccccc2)cc1	inactive: -2.94%	
CCOC(=O)c1c(NC(=O)c2cc3nc(-c4ccc(OC)cc4)cc(C(F)(F)F)n3n2)sc2c1CCC(C)C2 (configuration not stated)	inactive: -5.41%	
CCc1cccc(NC(=O)C(Cc2ccccc2)NS(=O)(=O)c2ccc3c(c2)oc(=O)n3C)c1 (configuration not stated)	inactive: -2.51%	
CCC(=O)N1CCc2cc(S(=O)(=O)CCC(=O)NCc3ccc(C)cc3)ccc21		inactive
COc1ccccc1-c1nc2c(c(SCC(=O)Nc3c(C)cc(C)cc3C)n1)Cc1c(CO)cnc(C)c1O2	inactive: 2.72%	
O=C(NCc1cccs1)c1ccc(Cn2c(SCc3cccc(F)c3)nc3cccnc32)cc1	inactive: -19.9%	
CCCCOC(=O)c1ccc(NC(=O)Cn2nnc3sc4c(c3c2=O)CCCC4)cc1	inactive: 1.86%	
CCOc1ccc(-c2cc(C(=O)N3CCN(S(=O)(=O)c4cc(Cl)ccc4OC)CC3)[nH]n2)cc1	inactive: -4.53%	
CCCSc1nnc2c(n1)OC(c1sccc1C)Nc1ccccc1-2 (configuration not stated)		inactive
CCc1cccc(NC(=O)c2cc3c(=O)n(Cc4ccc(OC)cc4)ccc3nc2C)c1	inactive: -1.38%	
Cc1ccc(N2C(=O)N(CC(=O)C(C)(C)C)c3ccccc3S2(=O)=O)cc1C	inactive: -2.12%	
CCOc1ccc(CCNC(=O)c2ccc(Nc3nc4ccccc4n4nnnc34)cc2)cc1OCC	inactive: -27.8%	
CC(=O)N1CCCC1c1nc2ccccc2n1Cc1ccccc1 (configuration not stated)	inactive: 2.87%	
CCOc1ccc(C(=O)c2oc3ccccc3c2NC(=O)Cc2coc3cc(C)cc(C)c23)cc1	inactive: 1.34%	
CCc1ccc(Cn2c(CNS(=O)(=O)c3ccc(F)c(Cl)c3)nc3cccnc32)cc1	inactive: -1.02%	
CC1=C(C(=O)OCC2CCCCC2)C(c2cccc(Cl)c2Cl)CC(=O)N1 (configuration not stated)	inactive: 50.5%	
Cc1ccc(C2CC(=O)Nc3cc4c(cc32)OCCO4)cc1 (configuration not stated)	inactive: -5.65%	
Cc1c(Cl)cccc1NC(=O)CN1C(=O)COc2ccc(S(=O)(=O)N3CCOCC3)cc21		inactive

Compound	activity change, negative = inhibition	outcome
CCOC(=O)c1ccc(NC(=O)c2c(N3CCCC3=O)c3cc(OC)ccc3n2C)cc1	inactive: 29.5%	
Cc1ccc(C)c(N2CCN(C(=O)Cn3ncc4ccsc4c3=O)CC2)c1		inactive
Cc1cc2oc(C(=O)N(Cc3ccccc3F)C3CCS(=O)(=O)C3)c(C)c2cc1Cl (configuration not stated)		inactive
CCc1ccc(-n2c(=O)c3c4c(sc3n(Cc3ccc(C)cc3)c2=O)CCC4)cc1	inactive: -8.92%	
Cc1ccc(CNCc2ccccc2)s1	inactive: -3.53%	
COc1ccc(CCNc2nccn(-c3ccc(C)c(C)c3)c2=O)cc1OC	inactive: 5.41%	
Cc1cc(C)cc(N2CC(c3nc(-c4cccc(Cl)c4)no3)CC2=O)c1 (configuration not stated)	inactive: 2.63%	
O=C(Cn1ncc2c([nH]c3ccccc32)c1=O)Nc1cccc(C(F)(F)F)c1	inactive: -1.44%	
Oc1c(C(c2ccc(F)cc2)N2CCOCC2)sc2nc(-c3ccco3)nn12 (configuration not stated)		inactive
CC(=O)N1CCc2cc(S(=O)(=O)NC(Cc3ccccc3)C(=O)Nc3cccc(C)c3)ccc21 (configuration not stated)	inactive: 5.96%	
Cc1ccccc1CN1c2ccccc2S(=O)(=O)c2ccccc21	inactive: 1.97%	
O=C1C(Nc2ccccc2)=CC(c2ccc(Br)cc2)N1c1ccccc1 (configuration not stated)	inactive: -13.7%	
Cc1ccc(CCNC(=O)NCc2noc3ccccc23)cc1	inactive: 1.43%	
Cc1ccc(CN2CCC(CNC(=O)Nc3cccc(Cl)c3C)C2)cc1 (configuration not stated)	inactive: 8.2%	
O=C(NCc1ccccc1)c1ccc2nc(CCc3ccccc3)oc2c1	inactive: -9.21%	
COc1ccccc1NC(=O)CN(C)S(=O)(=O)c1ccc2c(c1)c(=O)n(C)c(=O)n2C		inactive
COc1ccc(C)cc1NC(=O)NCc1cccn1Cc1ccccc1	inactive: -15.4%	
COc1ccc(N2CCN(C(CNC(=O)C(=O)NCCc3ccccc3)c3cccnc3)CC2)cc1 (configuration not stated)	inactive: 0.266%	
COc1cc(OC)cc(-c2nc(-c3cccc(C)c3)no2)c1	inactive: 8.84%	
O=C1CN2Cc3c(ccc(Cl)c3Cl)N=C2N1	inactive: 1.09%	
O=C(COc1ccc(Cl)cc1)Nc1nnc2n1CCS2	inactive: -19.8%	
Cc1c(CNC2CCCCCC2)c(C(=O)O)c(C)n1Cc1ccc(F)cc1Cl	inactive: 6.31%	
CCOCCCN(C(=O)Nc1ccc(Cl)cc1)C1CCN(C(C)=O)CC1	inactive: -16.7%	
